The record followed here is patent publication US7473708B2, “Agents with leukotriene B4-like antiviral (enveloped RNA) activities” (priority 1996, dated 2009).

The test deals with HSV-1. In words: Effect of LTB4 on the biological activity of acyclovir, HSV-1-infected PBMC, plaque assay on Vero cells. The conditions noted are these: suboptimal concentration of acyclovir, four days of culture. On the procedure:
PBMC (10^6 cells/ml) were infected with HSV-1 and treated with acyclovir or with LTB4 or with a combination of both drugs. A suboptimal concentration of acyclovir was used to assess the effect of LTB4 on the biological activity of acyclovir. After four days of culture, cell-free supernatants containing viral particles were harvested and the number of particles was titrated by plaque assay on Vero cell monolayers. Briefly, 0.2 ml of serially diluted (log10) culture supernatants to be tested were added to confluent monolayers of Vero cells in duplicate for 1 hour at 37° C. Unadsorbed particles were removed by washing and minimal media containing 1% methyl cellulose was added to the monolayers. Between days 5 to 7 post-infection, the cultures were fixed with methanol and stained with crystal violet. The number of plaques (PFU: plaque forming units), reflective of the number of infectious particles, were counted and the viral titer from each experimental group determined, and the effective inhibitory dose calculated. […] The results illustrated in FIG. 10 are representative of five others.

With `CCCCC/C=C\C[C@@H](O)/C=C/C=C/C=C\[C@@H](O)CCCC(=O)O` [LTB4, 5S,12R-dihydroxy-6,8,10,14 (Z,E,E,Z)-eicosatetraenoic acid], the “effect of LTB4 on antiviral effect of acyclovir in co-culture” value is listed as “does not reduce the antiviral effect of acyclovir”.
